The values below come from PubChem BioAssay AID463173 (ICCB-Longwood Screening Facility, Harvard Medical School, 2010).

The structures appear in SMILES notation. Screen size: about 52,000 compounds; about 4,300 (8.3%) were called active. No stated cut-off is given here; in the data, active means survival mostly below about 52% (no sharp cut-off); inactive means mostly above about 56%. Some of the results follow.

In this experiment the test system is DeltatarO mutant. The experiment in a line: growth inhibition of S. aureus wild type versus tarO mutant, primary screen, teichoic acid synthesis inhibitors, RN4220, OD600 (AID 463173). Particulars: OD600, 18 h, active compounds read low, screened at 18.75 µg/mL (by protocol).
For the molecule `Cc1ccc(-n2c(SCC(N)=O)nc3c([nH]c4ccccc43)c2=O)cc1`, the survival is inactive: 130%.

For `Cc1cncn1CCc1nc2c3ccccc3nc(SCC(=O)Nc3ccccc3F)n2n1`, the survival is inactive: 83%.

As to `Cc1ccc(Cn2c(C)c(CNC(C)c3ccccc3)c(C(=O)O)c2C)cc1` (stereo not drawn), the survival is inactive: 125%.

On to `Cc1ccc(Cl)cc1N1CCN(c2ncnc3onc(-c4ccc(F)cc4)c23)CC1`, for which the survival is inactive: 97%.

For `Cc1ccc(S(=O)(=O)Cc2nc(-c3ccc(C(=O)NCc4ccccc4F)cc3)oc2C)cc1`, the survival is inactive: 117%.

On to `CC(C)(C)c1ccc(-c2noc(CCC(=O)Nc3cccc(Cl)c3)n2)cc1`, for which the survival was inactive: 87%.

As to `Cc1ccc(S(=O)(=O)c2cn(C)c3cc(N4CCCCC4)c(F)cc3c2=O)cc1`, the survival was inactive: 71%.

As for `CC(C)(C)C(=O)NC(Cc1c[nH]c2ccccc12)C(=O)O` (stereo not drawn), the survival is inactive: 100%.

As for `COc1ccc(C)cc1NC(=O)N1CCC(CN2CCC(C)CC2)CC1`, the survival is inactive: 91%.

With `CCc1c(C)c2ccc(O)c(CN3CCN(c4ccccc4)CC3)c2oc1=O`, the survival is active: 56%.

Consider `CCOc1ccc2oc(=O)cc(CN3CCN(c4ccc(Cl)cc4)CC3)c2c1`, for which the survival is inactive: 97%.

As for `CC(=O)N1CCc2cc(Br)cc(S(=O)(=O)CCC(=O)Nc3ccc(C)cc3Cl)c21`, the survival is active: 47%.

Take `CCOC(=O)c1c(NC(=O)COc2ccc(Cl)cc2C)sc(C(C)=O)c1C`: the survival is inactive: 55%.

In the case of `CCN1CCN(c2cc(C)c3cc(NC(=O)c4ccccc4F)ccc3n2)CC1`, the survival was active: 43%.

Turning to `O=c1[nH]cnc2scc(-c3ccsc3)c12`, the survival was inactive: 104%.

As for `Cc1ccc(N2CCN(c3nc4c(S(=O)(=O)c5ccc(C)c(C)c5)nnn4c4ccccc34)CC2)c(C)c1`, the survival is inactive: 82%.

Consider `Cc1c(C(=O)N(Cc2ccc(N(C)C)cc2)CC2CCCO2)oc2ccc(Br)cc12` (stereo not drawn), for which the survival is inactive: 58%.

`CCc1cccc(NC(=O)C(CC(C)C)NS(=O)(=O)c2ccc3c(c2)oc(=O)n3C)c1` (stereo not drawn): the survival was inactive: 114%.

Consider `CCC(=O)N1CCc2cc(CNC(=O)Nc3cc(Cl)ccc3C(=O)OC)ccc21`, for which the survival is inactive: 74%.

For `COc1ccccc1CN1CCC(CNC(=O)c2cnn(-c3ccc(C)c(C)c3)c2C2CCN(C(=O)OC(C)(C)C)CC2)CC1`, the survival was inactive: 91%.

On to `N#CCC(=O)N1CCN(c2ccccc2)CC1`, for which the survival was inactive: 101%.

`Brc1ccc2nc(-c3ccccc3)c(Nc3ccc4c(c3)OCO4)n2c1`: the survival is inactive: 75%.

Regarding `O=C(c1cc2sccc2n1Cc1ccccc1)N1CCCCC1`, the survival was inactive: 109%.

For `Cc1cc(OCC(=O)NCC2(N3CCOCC3)CCCCC2)ccc1Cl`, the survival was inactive: 67%.

Regarding `CCc1noc(-c2ccc(N3CCCCC3)c([N+](=O)[O-])c2)n1`, the survival was inactive: 56%.

On to `C=CCNC(=O)c1cc2sccc2n1Cc1ccccc1`, for which the survival was inactive: 85%.

Regarding `CC(Sc1nnc(-c2ccncc2)o1)C(N)=O` (stereo not drawn), the survival is inactive: 67%.

Take `Cc1oc(-c2cccc(Cl)c2)nc1CN1CCC(C(=O)NCCc2ccc(Cl)cc2)CC1`: the survival is inactive: 87%.

On to `CCc1ccc(C2=C(C)C(N3CCC(C(=O)NCCc4ccco4)CC3)=NS2(=O)=O)cc1`, for which the survival was inactive: 83%.

As to `COc1cccc(OCC(=O)Nc2nnc3n2CCS3)c1`, the survival was inactive: 78%.

Regarding `Cc1cccc(NC(=O)CSc2nc(=O)n(Cc3cccnc3)c3c2CCC3)c1C`, the survival is inactive: 77%.

In the case of `O=C(NC1CCCCC1)N(Cc1cc2cc3c(cc2[nH]c1=O)OCCO3)C1CCCCC1`, the survival was inactive: 76%.

On to `O=C(Nc1cccc(Cl)c1)C1CCCN1S(=O)(=O)c1cccc2cccnc12` (stereo not drawn), for which the survival was inactive: 99%.

As for `Cn1nnnc1SCCNCc1ccc(OCc2ccc(Cl)cc2)cc1`, the survival is inactive: 68%.

Regarding `COc1ccccc1-c1nnc(SCC(=O)c2ccc(F)cc2)n1-c1ccccc1`, the survival was active: 6%.

With `CCc1ccc(CNC(=O)CN2C(=O)CCn3nc(-c4cn(C)c5ccccc45)cc32)cc1`, the survival is inactive: 81%.

With `Cc1cc(Cl)ccc1OCc1cc(=O)n2c3c(sc2n1)CCCC3`, the survival is inactive: 79%.

With `C=Cc1ccc(Cn2c(=O)cc(C)c3c(C)nn(C)c32)cc1`, the survival was active: 8%.

Consider `Cc1cccc(N2CCN(c3c4c(nc5nncn35)CCC4)CC2)c1C`, for which the survival is inactive: 78%.

In the case of `COc1ccc(S(=O)(=O)c2cn(Cc3ccccc3)c3ccc(OC)cc3c2=O)cc1`, the survival was inactive: 84%.

As for `COc1cc(-c2nnc(SCC(=O)Oc3ccccc3Cl)o2)cc(OC)c1OC`, the survival is inactive: 84%.

Regarding `CN(C)c1ccc(C(CNS(=O)(=O)c2ccc(F)cc2)N2CCc3ccccc32)cc1` (stereo not drawn), the survival was active: 32%.

As to `COc1ccccc1NC(=O)c1cc(S(=O)(=O)N2CCc3ccccc32)ccc1F`, the survival was inactive: 81%.

In the case of `COc1ccc(NC(=O)c2cc3c(=O)n(Cc4cccnc4)ccc3nc2C)cc1Cl`, the survival is inactive: 106%.

Regarding `Cc1ccn2c(Nc3ccc4c(c3)OCCO4)c(-c3ccc(C)s3)nc2c1`, the survival is inactive: 117%.

As to `Cc1ccc2nc(SCC(=O)Nc3ccc(C#N)cc3)[nH]c2c1`, the survival was active: 64%.

As to `COc1ccc(OC)c(NC(=O)CCc2nc(-c3ccc(C)cc3)no2)c1`, the survival is inactive: 70%.

As for `Cc1c(C(=O)N2CCC(C)CC2)c(S(=O)(=O)N2CCN(c3cccc(Cl)c3)CC2)c(C)n1C`, the survival is inactive: 94%.

Consider `COc1ccc(S(=O)(=O)c2cn(Cc3ccccc3)c3cc(F)c(F)cc3c2=O)cc1`, for which the survival was inactive: 112%.

Consider `CN1C(=O)c2[nH]nc(-c3ccc(F)cc3)c2C1c1ccccn1` (stereo not drawn), for which the survival was inactive: 57%.

In the case of `COc1ccc(Nc2cc(C(=O)NCc3ccccc3)c3ccccc3n2)cc1OC`, the survival is inactive: 105%.

As to `CC1CCC/C(=C(/C#N)c2nc(-c3ccccc3O)cs2)C1` (stereo not drawn), the survival is inactive: 65%.

With `O=c1c(S(=O)(=O)c2ccc(Cl)cc2)cn(Cc2ccc(F)cc2)c2ccc(F)cc12`, the survival was inactive: 109%.

With `CCOc1ccc(C(=O)NCc2ccc3c(c2)CCN3C(=O)c2ccc(C)cc2)cc1OCC`, the survival is inactive: 67%.

For the molecule `Cc1c(Nc2ncnc3sc4c(c23)CCCC4)c(=O)n(-c2ccccc2)n1C`, the survival is inactive: 91%.

Regarding `CC(C)CCN(Cc1ccco1)C(=O)Cn1ncc2c([nH]c3ccccc32)c1=O`, the survival is inactive: 115%.

In the case of `Cc1cc(C)n(C(=O)CNc2ccccc2Cl)n1`, the survival was inactive: 91%.

Turning to `Nc1cc(S(=O)(=O)C(F)(F)F)cc(S(=O)(=O)C(F)(F)F)c1`, the survival is inactive: 110%.
